From PubChem BioAssay AID1963576 (National Center for Advancing Translational Sciences (NCATS), 2024)
Among all 46,000 compounds or so, about 60 (0.1%) were called active. About 3% were inconclusive and are not listed. The call rests on the fitted dose curve; in most records, active means well fitted inhibition curve with a large enough effect; inconclusive means small, poorly fitted or top-dose-only effect; inactive means no such curve, though single readings can be large or run the other way. Some of the results follow.

Assay: Primary qHTS assay for Inhibitors of ovarian cancer metastasis using an organotypic tumor microenvironment (TME) model. Further: nearly all actives have a fitted effect of over 65% in size.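 On activity change, negative = inhibition: plate controls were DMSO wells for no effect and tomatine positive control wells for full effect.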
Settings: SKOV3ip1-GFP adhesion/invasion on 3D omental model, fluorescence; series mostly up to 45.8 µM; activity change, negative = inhibition: at the top concentration
Procedure, shortened: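 Adhesion/invasion was scored as fixed GFP-labeled SKOV3ip1 cell counts (488/509 nm), normalized to DMSO and tomatine controls. Cancer cells in serum-free medium, with four compound doses (0.36-46 umol/L), sat 2 hr at RT then 16 hr at 37 C on a 48 hr fibroblast/mesothelial/ECM culture.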

Activity change, negative = inhibition, inactive:
COC(=O)c1ccccc1NC(=O)c1nc(S(=O)(=O)Cc2ccccc2F)ncc1Cl 3.76%, Cc1ccc(-n2nc(C(=O)N3CCN(c4ccccc4)CC3)c(=O)n(C)c2=O)cc1 0.998%, Cc1cccc(Cc2cnc(NC(=O)c3ccc4c(c3)CC(c3ccccc3)OC4=O)s2)c1 (stereo unspecified) -3.9%, Cc1ccc2oc(C(=O)Nc3ccc(S(=O)(=O)N(C)Cc4ccccc4)cc3)cc(=O)c2c1 -3.05%, CCc1ccccc1NC(=O)C1CCN(c2nn3c(=O)cc(C)nc3s2)CC1 2.46%, COc1cccc(CC(=O)NCc2ccc3c(c2)CCN3C(C)=O)c1 -4%, Cc1ccccc1Cn1c(C)c(CNCc2ccccc2)c(C(=O)O)c1C 15.4%, CC(NC(=O)c1ccc2nc(CCc3ccccc3)oc2c1)c1ccccc1 (stereo unspecified) 4.97%, O=C(NCCc1ccc(Cl)cc1)c1ccc2c(c1)N(Cc1ccccc1)CCS2 -1.23%, COc1ccc(NC(=O)c2nc(SCc3ccccc3F)ncc2Cl)cc1 -2.32%, CCOc1ccc(NC(=O)Cn2c(CCC(=O)O)ccc2-c2ccc(Cl)cc2)cc1 -3.58%, Cc1ccc(C)c(Cn2c3ccccc3c3cnn(CC(=O)N4CCCCC4)c(=O)c32)c1 1.69%, CCCN1C(C(=O)c2ccccc2)=C(OC(=O)c2ccc(F)cc2)c2ccccc2S1(=O)=O 5.98%, Cc1ccc(NC(=O)CCS(=O)(=O)c2cccc3nonc23)c(C)c1 -19.4%, CC(C)c1ccc(C2=CC(c3cccc(Cl)c3)n3ncnc3N2)cc1 (stereo unspecified) -17.3%, Cc1nn(CCC(=O)NC(C)C)c(=O)c2nn(-c3ccccc3)c(C)c12 -0.485%, Cc1cccc(-n2c(=O)c3ccccc3n(Cc3ccccc3C#N)c2=O)c1 5.65%, COc1cc2c(C(=O)N3CCN(c4cccc(C)c4)C(C)C3)cn(CC(C)C)c(=O)c2cc1OC (stereo unspecified) -8.62%, COc1ccc(Cl)cc1NC(=O)c1cc(S(=O)(=O)N2CCc3ccccc32)cn1C 13.4%, Cc1ccc2nc(NCc3ccccc3Cl)c3nnnn3c2c1 2.19%, COc1cccc(Cc2nc3ccccc3nc2SCC(=O)N2CCCCC2C)c1 (stereo unspecified) 1.68%, CCc1nnc(NC(=O)c2nc(S(C)(=O)=O)ncc2Cl)s1 -7.84%, COc1cc(NC(=O)CCc2c(C)n(C)c3cc(-c4ccccc4C)nn3c2=O)cc(OC)c1OC -0.346%, O=C(CN1C(=O)CSc2ccc(S(=O)(=O)N3CCCCC3)cc21)NCc1ccc(F)cc1Cl -0.358%, O=C(NCc1ccco1)c1ccc2c(c1)N(Cc1ccc(F)cc1)C(=O)c1ccccc1S2=O (stereo unspecified) 2.12%, CCOc1ccccc1NC(=O)c1sc2nc3c(cc2c1N)CN(Cc1ccccc1)CC3 -1.71%, COc1cc2ccccc2cc1C(=O)Nc1ccc2oc(-c3cc(Br)ccc3Cl)nc2c1 1.21%, Cc1nc(N)sc1-c1ccnc(Nc2ccc(N3CCOCC3)cc2)n1 -18.5%, COc1cccc(C(=O)CN2CCN(S(=O)(=O)c3ccc(Cl)cc3)CC2)c1 5.84%, COc1ccc(C(CNC(=O)c2ccc(C)cc2)N2CCOCC2)cc1 (stereo unspecified) 2.5%, Cc1noc(NS(=O)(=O)c2ccc(N)cc2)c1C 22.7%, O=C(c1cccs1)N1CCCc2cc(NS(=O)(=O)c3ccc(Cl)cc3)ccc21 -9.85%, Cc1cccc(C(=O)NCC(c2ccc3c(c2)OCO3)N2CCOCC2)c1 (stereo unspecified) 2.96%, O=C(c1ccco1)c1cn(CCOc2ccc(Cl)cc2)c2ccccc12 5.33%, CCc1cccc2c3c([nH]c12)C(CC)(CC(=O)O)OCC3 (stereo unspecified) -9.27%, COc1ccc(NC(=O)c2cnc(SCC(=O)Nc3nc4ccc(C)cc4s3)n(C)c2=O)cc1 28.7%, CC(=O)c1ccc(NC(=O)Cn2c3ncccc3c(=O)n2-c2ccc(C)cc2)cc1 -12.7%, CCC(=O)N1CCc2cc(CNC(=O)Nc3ccc(OC)cc3OC)ccc21 -4.93%, O=C(NCCc1ccccc1)C(=O)NCC(c1cccnc1)N1CCN(c2ccc(F)cc2)CC1 (stereo unspecified) -2.48%, COc1ccccc1-c1cc(C(F)(F)F)nc(S(=O)(=O)CCCC(=O)Nc2cc(Br)ccc2O)n1 -0.925%, CCN(C(=O)CN(C)S(=O)(=O)c1ccc2c(c1)n(C)c(=O)c(=O)n2C)c1cccc(C)c1 -13%, Cc1cccc(-c2noc(-c3ccc(N4CCCC4)c([N+](=O)[O-])c3)n2)c1 1.27%, CCOc1ccc(Nc2nc3ccccc3c3nnc(CC)n23)cc1 3.97%, COc1ccc(NS(=O)(=O)c2ccc3[nH]c4c(c3c2)CCCC4)c(OC)c1 -2.95%, COc1cccc(NC(=O)Cn2c(=O)n(-c3cccc(OC)c3)c(=O)c3c4c(sc32)CCCC4)c1 1.39%, Cc1cc(C)c(Cn2c(=O)n(CCCCCC(=O)NCc3ccc4c(c3)OCO4)c(=O)c3sccc32)c(C)c1 -4.25%, O=C(CSCc1ccc(F)cc1)N1CCN(c2ccccc2)CC1 5.2%, CN(C)c1ccc(C(CNS(=O)(=O)c2cc(F)ccc2F)N2CCOCC2)cc1 (stereo unspecified) 7.54%, CCN(CC)C(=O)c1sc(NC(=O)C2c3ccccc3Oc3ccccc32)c(C(=O)OC(C)C)c1C 3.01%, Cc1ccc(CN(C(=O)c2ccccc2Br)C2CCS(=O)(=O)C2)o1 (stereo unspecified) 3.27%, COc1ccc(NC(=O)CC2C(=O)N(c3ccccc3)C(=O)N2Cc2cccnc2)cc1 (stereo unspecified) -6.25%, CCOc1ccccc1NC(=O)COc1cccc2c(=O)n(CCOC)ccc12 0.548%, Cc1ccc(NC(=O)Nc2cc3c(cc2N2CCCCC2)n(C)c(=O)n3C)cc1Cl 3.29%, Cn1c(=O)c2c(SCC(=O)NCc3ccco3)nc(-c3ccccc3F)nc2n(C)c1=O 0.902%, C[C@@H]1CN(CC(=O)Nc2ccc3c(c2)Cc2cccc(-c4cc(=O)cc(N5CCOCC5)o4)c2S3)C[C@H](C)O1 5.02%, COc1ccc(-c2[nH]ncc2C(=O)NCc2cccc(F)c2)cc1 -1.81%, CCC1CCCCN1S(=O)(=O)c1ccc(N2CCCCS2(=O)=O)cc1 (stereo unspecified) 0.984%, CCOC(=O)c1ccc(NC(=O)c2c(C)oc3nc(C)nc(N4CCCC4)c23)cc1 -12.9%, O=C(CCCc1nc(-c2ccco2)no1)Nc1ccccc1[N+](=O)[O-] 2.08%, COc1cccc(-n2c(=O)c3c4c(sc3n(Cc3ccc(F)cc3Cl)c2=O)CCCC4)c1 4.2%, Cc1c(C(=O)Nc2ccc(Br)cc2F)oc2ccc(S(=O)(=O)N3CCC4(CC3)OCCO4)cc12 4.17%, COc1ccc(NC(=O)c2oc3ccc(S(=O)(=O)N(C)C4CCCCC4)cc3c2C)cc1Cl -2.27%, Cc1ccc(Cl)cc1N1CCN(C(=O)CCSCc2ccccc2F)CC1 -3.44%, COCCNC(=O)c1ccc2nc(CCc3ccccc3)oc2c1 -8.5%, CCc1ccc(NC(=O)CC(c2ccc(C)cc2)N2Cc3ccccc3C2=O)cc1 (stereo unspecified) -2.63%, CCOC(=O)c1[nH]c(C)c(CCC(=O)Nc2ccccc2C(=O)OC)c1C -15%, Cc1cc(OCC(=O)NC(Cc2c[nH]c3ccccc23)C(=O)O)ccc1Cl (stereo unspecified) -1.65%, Cc1cccc(CSc2nc(=O)c3c(n2C)NC(=O)CC3c2cc(F)cc(F)c2)c1 (stereo unspecified) 0.861%, COc1cccc(CNC(=O)c2cccc(-n3c(C)nc4cccnc43)c2C)c1 -2.61%, CC(C)OCCCNC(=O)c1ccc(Cn2c(=O)c3cccn3c3cccnc32)cc1 -2.46%

outcome, inactive:
CCc1ccc(-n2c(=O)c3c4c(sc3n(CC(=O)NCCCOC)c2=O)CCC4)cc1, CN(C)S(=O)(=O)Nc1ccc(-c2cn3ccsc3n2)cc1, CC(C)Oc1ccc(CNC(=O)c2ccc3nc(SCc4ccc(F)cc4)n(C)c3c2)cc1, Cc1ccc(C)c(NC(=O)CCc2c(C)n(C)c3cc(-c4ccccc4C)nn3c2=O)c1, COc1cccc(N2CCN(C(=O)c3ccc(CS(=O)c4cccc(Cl)c4)o3)CC2)c1 (stereo unspecified), O=C(CSc1nc2c([nH]c3ccccc32)c(=O)n1-c1cccc(Cl)c1)N1CCc2ccccc21, Cc1ccc(-c2noc(CSc3nnc(-c4ccc(Cl)cc4)n3C)n2)cc1, CCc1ccc(C2C(C(=O)Nc3ccccc3)=C(C)Nc3nc(SCC(=O)c4ccc(C)cc4)nn32)cc1 (stereo unspecified), O=C(CSc1nccn1Cc1ccccc1)NC1CCCC1, COc1ccc(NC(=O)C2CCN(S(=O)(=O)c3c(C)noc3/C=C/c3ccco3)CC2)cc1, O=C(NCc1ccc(Cl)cc1)C(=O)Nc1cccc(Br)c1, CC1CCC(NC(=O)c2ccc3c(c2)N(Cc2cccc(Cl)c2)C(=O)c2ccccc2S3=O)CC1 (stereo unspecified), COc1ccc(C2=NN(C(C)=O)C(c3cn(-c4ccccc4)nc3-c3cccs3)C2)cc1 (stereo unspecified), CC(=O)Nc1c(C(=O)Nc2cccc(C)c2)nnn1-c1ccc(C)cc1, Cc1ccc(-n2nc(-c3ccc(F)cc3)c3cnc4cc5c(cc4c32)OCO5)cc1C, Cc1cccc(N2CCN(C(=O)c3oc(=O)c4ccccc4c3-c3ccccc3)CC2C)c1 (stereo unspecified), Cc1ccc(CNC(=O)c2ccc3c(c2)N(Cc2ccccc2Cl)C(=O)CS3)cc1, Cc1ccc(C2CCN(C(=O)Nc3ccc(Cl)c(Cl)c3)C2)cc1 (stereo unspecified), Cc1ccc(-c2nnc(Nc3ccccc3)c3ccccc23)cc1S(=O)(=O)N1CCOCC1, CCOc1ccc2nc(N(Cc3cccnc3)C(=O)C3CCCCC3)sc2c1, Cc1cc(N2CCN(c3ccc(F)cc3)CC2)n2nc(-c3ccc(Cl)cc3)nc2n1, CCc1nn(CC(=O)NCCc2ccc(Cl)cc2)c(=O)c2cc3ccccc3n12, Cc1oc2ncn(C)c(=O)c2c1C(=O)Nc1ccc(F)cc1, Cc1oc2ccc(O)c(CN3CCN(C)CC3)c2c1C(=O)Nc1ccccc1, COc1ccc(Cn2c(CCC(=O)Nc3ccc(C)cc3C)nc3cccnc32)cc1, CCn1c(=O)cc(SCC(=O)NCc2ccc(Cl)cc2)c2ccccc21
